In PubChem BioAssay AID1460 (National Center for Advancing Translational Sciences (NCATS), 2008):
Where “and” joins values, the source holds several entries; their conditions need not be identical. Identical values can stand only once. About 5,800 (2.1%) of roughly 270,000 compounds were called active. Inconclusive means that the source gave no clear call. Such entries were picked first, then a sample of the others. Calls come from the whole dose curve; as a rule, active = well fitted inhibition curve with a large enough effect; inconclusive = small, poorly fitted or top-dose-only effect; inactive = flat fitted curve, though single readings scatter. Where the call is inconclusive, the potency comes from a doubtful curve fit.

biological target: Microtubule-associated protein tau (Homo sapiens) (UniProt P10636); assay: qHTS for Inhibitors of Tau Fibril Formation, Thioflavin T Binding; settings: recombinant tau K18 P301L (four-repeat tau fragment), heparin-induced fibrillization, ThT fluorescence; series mostly up to 57.4 µM; activity, negative = inhibition: at the top concentration; note: nearly all actives have a fitted effect of over 55% in size
In short: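 Tau K18 P301L fragment (15 uM unlabeled plus 0.24 uM Alexa 594-labeled) in 100 mM sodium acetate pH 7 with compound, fibrillization induced by 20 uM heparin for 6 hr at 37 C. Thioflavin T (30 uM) added, fluorescence read after 1 hr (ex 450, em 510 nm).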
% is set by controls: 0 for no effect and ±100 for the full control effect; potency is the fitted concentration of half-maximal effect; tags give direction and shape of the fitted curve.

UniProt P10636, sequence (P10636 whole entry, looked up, the tested form may be a part): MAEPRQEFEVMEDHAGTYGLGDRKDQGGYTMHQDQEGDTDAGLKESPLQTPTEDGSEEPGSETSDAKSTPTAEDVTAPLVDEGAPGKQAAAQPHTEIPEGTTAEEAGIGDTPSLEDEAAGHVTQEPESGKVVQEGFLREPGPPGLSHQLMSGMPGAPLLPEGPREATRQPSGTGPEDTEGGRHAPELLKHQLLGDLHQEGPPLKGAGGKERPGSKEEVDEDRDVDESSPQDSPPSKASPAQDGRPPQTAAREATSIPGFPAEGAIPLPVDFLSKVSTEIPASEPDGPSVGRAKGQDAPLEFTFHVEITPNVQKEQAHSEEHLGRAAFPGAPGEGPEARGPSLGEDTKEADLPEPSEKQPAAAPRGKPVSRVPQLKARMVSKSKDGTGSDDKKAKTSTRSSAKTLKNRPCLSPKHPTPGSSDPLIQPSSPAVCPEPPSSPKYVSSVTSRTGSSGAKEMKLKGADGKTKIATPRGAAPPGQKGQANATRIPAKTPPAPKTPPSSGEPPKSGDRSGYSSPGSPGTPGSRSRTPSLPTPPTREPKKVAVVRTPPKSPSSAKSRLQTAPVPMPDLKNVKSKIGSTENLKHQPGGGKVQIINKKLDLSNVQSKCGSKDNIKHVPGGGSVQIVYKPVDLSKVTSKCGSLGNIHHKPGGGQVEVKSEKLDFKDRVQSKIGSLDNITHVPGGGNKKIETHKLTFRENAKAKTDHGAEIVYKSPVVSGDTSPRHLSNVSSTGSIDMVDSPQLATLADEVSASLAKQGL

| Structure (SMILES) | activity, negative = inhibition | Potency |
| --- | --- | --- |
| COc1cccc(CNC(=O)C2CCN(S(=O)(=O)c3ccc4c(c3)CCCN4C(C)=O)CC2)c1 | inactive: 2.5% |  |
| CC(=O)c1cccc(NS(=O)(=O)c2ccc(N/C=C\C(=O)c3ccc(F)cc3)cc2)c1 | inactive: 0.934% |  |
| C=C(C(C)=O)C(O)c1cccc(OC)c1 (stereo not given) | inactive: -5.7% |  |
| N#Cc1ccc(CSc2nnc(NC(=O)c3ccc(=O)[nH]c3)s2)cc1 |  | inconclusive: 22.4 µM [inhibitor, partial curve, poor fit] |
| Cc1ccc(NC(=O)COC(=O)Cc2csc(-c3cccc(F)c3)n2)cc1C | inactive: -0.656% |  |
| COc1ccc(Cc2c(O)nc(SCC(=O)NC34CC5CC(CC(C5)C3)C4)[nH]c2=O)cc1 |  | inconclusive: 35.5 µM [inhibitor, single point] and inconclusive: 31.6 µM [inhibitor, single point] |
| COc1ccc2cc3c(N)nn(C(=O)c4ccc(OC)c(OC)c4)c3nc2c1 |  | inconclusive: 31.6 µM [inhibitor, single point] |
| COC(=O)c1ccc(C(=O)OC)c(NC(=S)N2CCN(c3ccc(F)cc3)CC2)c1 |  | inconclusive: 11.2 µM [inhibitor, partial curve] |
| C=CCN(Cc1cn(C)nc1-c1cccc(Cl)c1)C1CCS(=O)(=O)C1 (stereo not given) | inactive: -14.9% |  |
| CCOc1cc(/C=C2\C(=O)N(Cc3ccc(C)cc3)C(C)=C2C(=O)OC)ccc1O |  | active: 25.1 µM |
| CCOc1cc(/C=C2\C(=O)N(Cc3ccco3)C(C)=C2C(=O)OC)ccc1O |  | active: 28.2 µM |
| COc1cccc(CNC(=O)c2ccc(-n3c(C)cc4c3CCC(C)C4)cc2)c1 (stereo not given) |  | inconclusive: 39.8 µM [inhibitor, single point] |
| CCOC(=O)c1sc(NC(=O)CSc2nnc(-c3ccco3)o2)c(C(=O)OCC)c1C |  | inconclusive: 22.4 µM [inhibitor, partial curve, poor fit] |
| CCOc1ccc(NC(=O)c2ncoc2-c2ccco2)cc1 |  | inconclusive: 35.5 µM [inhibitor, single point] |
| Cc1cc[n+](C2=C([O-])c3ccccc3C(=O)/C2=N\S(=O)(=O)c2cccs2)cc1C |  | inconclusive: 22.4 µM [inhibitor, partial curve] |
| Cc1ccc2nc3c(cc(C#N)c(=O)n3-c3nnc(SCc4ccccc4)s3)c(=O)n2c1 | inactive: 13.8% |  |
| CN(C)c1ccc(NC2=C(Cl)C(=O)c3ccccc3C2=O)cc1 |  | active: 7.94 µM |
| Cc1cc(C)c2c(N)c(S(=O)c3ccc(C(C)(C)C)cc3)sc2n1 (stereo not given) |  | active: 25.1 µM |
| COc1ccc(NC(=O)c2cc3c(=O)n4ccccc4nc3n2C)cc1OC |  | inconclusive: 3.16 µM [inhibitor, full curve] |
| COc1ccccc1Nc1ccc(Nc2ccccc2OC)nn1 |  | inconclusive: 12.6 µM [inhibitor, partial curve] |
| CCOC(=O)C1CCCN(C(=O)c2cc(Nc3ccc(OC)c(OC)c3)nc3ccccc23)C1 (stereo not given) |  | inconclusive: 39.8 µM [inhibitor, partial curve] |
| O=[N+]([O-])c1cccc(/C=N/Nc2cc(Cl)nc(-c3ccccc3)n2)c1 |  | inconclusive: 20 µM [inhibitor, partial curve] |
| CCOC(=O)CSC1=C(C#N)C(=O)NC2(CCCCC2)S1 |  | inconclusive: 39.8 µM [inhibitor, partial curve] |
| CCCn1c(=N)c(C(=O)NCc2ccc3c(c2)OCO3)cc2c(=O)n3cccc(C)c3nc21 |  | inconclusive: 31.6 µM [inhibitor, single point] |

| Structure (SMILES) | activity, negative = inhibition | Potency |
| --- | --- | --- |
| Cc1coc2c1C(=O)C(=O)c1c-2ccc2c(C)cccc12 |  | active: 2 µM |
| Cc1ccc(Cl)cc1N1CCN(S(=O)(=O)c2ccc3c(c2)CCN3C(=O)C2CCC2)CC1 | inactive: -7.26% |  |
| CCOC(=O)c1cnc(SCc2cccc3ccccc23)nc1N |  | inconclusive: 25.1 µM [inhibitor, partial curve, poor fit] |
| CN1C2CCC1/C(=C\c1ccccc1F)C(=O)/C2=C/c1ccccc1F |  | inconclusive: 3.16 µM [inhibitor, full curve] |
| COc1ccc(Nc2cc(C(=O)NCCCN3CCOCC3)c3ccccc3n2)c(OC)c1 |  | inconclusive: 31.6 µM [inhibitor, partial curve, poor fit] |
| Cc1cc(C)n2c(=S)[nH]nc2n1 |  | inconclusive: 35.5 µM [inhibitor, single point] |
| CN(C)c1ccc(NC(=O)CSc2nc3c(c(=O)[nH]2)CCCC3)cc1 |  | inconclusive: 28.2 µM [inhibitor, single point] |
| CC(=O)c1ccc(NC(=O)Cn2nc(N3CCN(c4ccccc4)CC3)ccc2=O)cc1 |  | inconclusive: 28.2 µM [inhibitor, single point] |
| COc1ccccc1OC(C)C(=O)Nc1cccc(-c2nc3ccccc3o2)c1 (stereo not given) | inactive: -19.4% |  |
| O=C(Nc1ccc(N2CCOCC2)cc1)NC1CCCCC1 | inactive: -10.7% |  |
| CCC(Sc1nnc(C)n2c1cc1occc12)C(=O)Nc1ccccc1OC (stereo not given) |  | inconclusive: 12.6 µM [inhibitor, partial curve, poor fit] |
| CCOC(=O)CC(=O)CSc1nc(C)nc2c1oc1ccccc12 |  | inconclusive: 12.6 µM [inhibitor, single point] |
| O=C1CC(SCc2nc3ccccc3[nH]2)C(=O)N1c1ccc(Cl)cc1 (stereo not given) |  | inconclusive: 12.6 µM [inhibitor, partial curve] |
| O=C1NCCCC2c3c(cc(Br)c(O)c3Br)OC12N1CCCCC1 (stereo not given) |  | inconclusive: 35.5 µM [inhibitor, single point] |
| O=C(NN=C1CCN(Cc2ccccc2)CC1)c1cc(Br)ccc1O |  | inconclusive: 12.6 µM [inhibitor, partial curve] |
| COc1ccc2c(CSc3nc4nc(C)cc(C)n4n3)cc(=O)oc2c1 | inactive: -10.6% |  |
| Cc1ccc(NC(=O)Cc2coc3ccc(C(C)C)cc23)cc1Cl | inactive: -13.3% |  |
| COc1ccccc1OCC(=O)n1cc(C(=O)c2cc(Cl)cc(Cl)c2O)cn1 | inactive: -5.85% |  |
| CC(C)Oc1cc(O)c2c(=O)c(-c3ccc(O)cc3)coc2c1 |  | inconclusive: 4.47 µM [inhibitor, partial curve] |
| COc1ccc(-c2nc3c(c(SCC(=O)N4CCCCC4)n2)Cc2cc(Cl)ccc2O3)cc1 | inactive: -5.08% |  |
| c1cc(-c2ccncc2)ccn1 |  | inconclusive: 7.94 µM [inhibitor, single point] |
| Nc1nc(=S)[nH]c2c1C1(CCCC1)Cc1ccccc1-2 |  | inconclusive: 11.2 µM [inhibitor, partial curve] |
| Cc1ccc(N(CC(=O)Nc2ccc(Cl)cc2)S(=O)(=O)c2cccc3nonc23)cc1 | inactive: -5.07% |  |
| CCCCC/C=C\C/C=C\C/C=C\C/C=C\CCCCCC(=O)NCCCC(=O)O | inactive: -8.71% |  |

| Structure (SMILES) | activity, negative = inhibition | Potency |
| --- | --- | --- |
| C[C@@]12CCC=C[C@H]1[C@H](c1ccccc1Br)N(Cc1ccccc1)C2=O |  | inconclusive: 14.1 µM [inhibitor, partial curve, poor fit] |
| CCN1C(=O)/C(=C\c2cn(CCC#N)nc2-c2ccc(F)cc2)SC1=S |  | inconclusive: 31.6 µM [inhibitor, single point] |
| CCOC(=O)c1sc(=S)n(C)c1NC(=O)c1ccc(OC)cc1 |  | inconclusive: 31.6 µM [inhibitor, single point] |
| CC(C)(C)c1ccc(OCc2nnc(-c3ccccc3)o2)cc1 | inactive: -18.2% |  |
| COc1cccc2c1C(=O)C=C(C)C2=O |  | active: 7.08 µM |
| Cc1ccccc1OCCCN1C(=O)C(=O)c2cccc(C)c21 |  | active: 22.4 µM |
| Cc1csc(NC(=O)c2sc3nc(-c4cccs4)ccc3c2N)n1 |  | active: 7.94 µM |
| Cc1cc2occ(CC(=O)NC3=NCCS3)c2cc1C(C)C | inactive: -4.95% |  |
| Fc1ccc(-c2nc(Nc3cccc(C(F)(F)F)c3)nc3c2COc2ccccc2-3)cc1 |  | inconclusive: 3.98 µM [inhibitor, full curve] |
| COC(=O)C1=C(C)[C@@H](O)[C@@H](C)[C@H](c2c(OC)c(OC)c(C)c(OC)c2OC)O1 | inactive: -9.98% [at 11.5 µM] |  |
| O=C(Nc1ccc2c(c1)OCO2)OCc1ccccc1 |  | inconclusive: 14.1 µM [inhibitor, partial curve, poor fit] |
| Cc1ncc(CO)c(/C=N/NC(=O)c2cc3c(s2)CCCC3)c1O | inactive: -17.1% |  |
| O=C(CCC1N=C2c3ccccc3N=C(SCc3ccc(Cl)cc3)N2C1=O)N1CCN(c2ccccc2)CC1 (stereo not given) |  | inconclusive: 14.1 µM [inhibitor, partial curve] |
| COc1ccccc1NS(=O)(=O)c1ccc(N/N=C/c2c(C)nn(-c3ccccc3)c2N2CCCC2)c([N+](=O)[O-])c1 |  | inconclusive: 12.6 µM [inhibitor, partial curve] |
| Cc1ccc(CSc2nnc3[nH]c(=O)cc(-c4ccccc4)n23)cc1 |  | inconclusive: 1.12 µM [inhibitor, full curve, poor fit] |
| Cc1nn(C)cc1CNC(=O)c1cnn2c1NC(c1ccc(Br)cc1)CC2C(F)(F)F (stereo not given) | inactive: -14.2% |  |
| CC(=O)c1ccc(NC(=O)Nc2cccc(Cl)c2)cc1 |  | inconclusive: 28.2 µM [activator, single point] |
| N=c1sccn1CC(=O)Nc1cccc(S(N)(=O)=O)c1 | inactive: 2.51% |  |
| COc1cc(OC)c(C2CC(=O)N3CN(c4ccccc4)CSC3=C2C#N)cc1OC (stereo not given) |  | active: 28.2 µM |
| Nc1c(C=C2C=CC(=O)C=C2)c(=O)nc2snc(SCc3ccccc3)n12 |  | active: 7.94 µM |
| Cc1cc(C(=O)Nc2ccc(-n3c(C)nc4ccccc4c3=O)cc2)ccc1[N+](=O)[O-] |  | inconclusive: 31.6 µM [inhibitor, single point] |
| CCCCOc1ccc(N2C(=O)CC(NCc3ccncc3)C2=O)cc1 (stereo not given) | inactive: -16.9% |  |
